From PubChem BioAssay AID485281 (National Center for Advancing Translational Sciences (NCATS), 2010)
Out of some 350,000 compounds screened, about 260 (0.074%) were called active. The shares of active, inactive and inconclusive entries below differ from those in the screen. The call rests on the fitted dose curve; in most records, active means well fitted inhibition curve with a large enough effect; inconclusive means small, poorly fitted or top-dose-only effect; inactive means no such curve, though single readings can be large or run the other way. Potencies of inconclusive entries are doubtful fits and often do not repeat.

target: Ferritin light chain (Equus caballus) (UniProt P02791); assay: qHTS Assay for Identification of Novel General Anesthetics; conditions: apoferritin/1-aminoanthracene competitive binding, fluorescence; series mostly up to 77.5 µM; further: nearly all actives have a fitted effect of over 20% in size
UniProt P02791, sequence (P02791 whole entry, looked up): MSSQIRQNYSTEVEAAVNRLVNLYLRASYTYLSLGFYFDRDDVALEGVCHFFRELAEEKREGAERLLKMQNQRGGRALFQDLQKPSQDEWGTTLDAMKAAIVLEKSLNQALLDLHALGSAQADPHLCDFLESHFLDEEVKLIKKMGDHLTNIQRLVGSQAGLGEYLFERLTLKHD
In short: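 Apoferritin-based anesthetic binding model; compound displacement of fluorescent 1-AMA measured as endpoint fluorescence after 10 minutes at room temperature, scaled to free-ligand and complex controls.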
Potency means the concentration at half of the fitted maximal effect; tags describe the fitted curve by direction and shape.

Potency, inactive:
Cc1cc(C)nc(Nc2n[nH]c(Cc3ccccc3)n2)n1
COc1ccc(NC(=O)C2CCN(S(=O)(=O)c3cccc(-c4noc(C)n4)c3)CC2)cc1OC
Cc1ccc(S(=O)(=O)NCc2ccncc2)cc1C
Cc1nc(/C(N)=N/OC(=O)c2cccc(Cl)c2)c(C(F)(F)F)o1
CC(=O)SC1CC2=CC(=O)CC[C@@]2(C)C2CC[C@@]3(C)[C@@H](CC[C@@]34CCC(=O)O4)C12 (stereo not given in full)
Cc1ccc(C)c(NC(=O)CN2CCSc3ccc(S(=O)(=O)N4CCCC4)cc32)c1
COc1ccc2[nH]c(=O)c(C(c3nnnn3CC3CCCO3)N3CCc4ccccc4C3)cc2c1 (stereo not given)
CN1/C(=C\C(=O)COC(=O)CNC(=O)c2ccccc2F)C(C)(C)c2ccccc21

Potency, inconclusive:
CN(NC(=O)c1ccc(Cl)cc1)c1nc(-c2ccccc2)nnc1C(F)(F)F 2.82 µM [inhibitor, full curve, poor fit]
Oc1ccc(C2Nc3cccc4cccc(c34)N2)c(O)c1 50.1 µM [inhibitor, single point]
CC(NC(=O)c1cc2c(s1)CCCC2)C(C)(C)C (stereo not given) 22.4 µM [inhibitor, partial curve]
Cc1cc(C)c(NC(=O)CSc2nc3ccncc3[nH]2)c(C)c1 20 µM [inhibitor, partial curve]
CCCCCOc1ccc(/C(C)=N/NC2=NCCN2)cc1 15.8 µM [inhibitor, partial curve]
CC(C)c1ccc(CN(C(=O)c2cc3ccccc3oc2=O)C2CCS(=O)(=O)C2)cc1 (stereo not given) 31.6 µM [inhibitor, single point]
CCCCN1/C(=C/c2ccc3ccccc3[n+]2CC)Sc2ccccc21 35.5 µM [inhibitor, partial curve]
Clc1ccccc1Cn1nnc2c(NCC3CC3)ncnc21 25.1 µM [inhibitor, partial curve]
CCCc1nn2c(=O)cc(COC(=O)c3ccc(NC(=O)COc4ccc(F)cc4)cc3)nc2s1 12.6 µM [inhibitor, partial curve]
Clc1ccccc1Cn1nnc2ccccc21 31.6 µM [inhibitor, single point]
COc1ccc(NC(=O)C2=CC(c3ccco3)=NS(=O)(=O)N2C)cc1 20 µM [inhibitor, partial curve]
O=C(O)/C=C/C(=O)Nc1ccc(SC(F)(F)F)cc1 35.5 µM [inhibitor, single point]
